Measured values reported in US7592316B2, “Peptides as NS3-serine protease inhibitors of hepatitis C virus” (Schering Corporation, priority 2000, dated 2009).
*1 amine or outer side, *2 acyl side, *3 side chain or, on linkers, in order; H or OH if unused. Where a SMILES comes first, the peptide text is derived from it. [ ]: non-standard residue; d: D form. The star is where a group is joined. Pro(3R,4S-CMe2) = CC1(C)[C@@H]2[C@@H](C(=O)O)NC[C@@H]21; X89 = O=C(C(=O)[*:2])C(N[*:1])C1CCCC1; Phg = N[C@H](C(=O)O)c1ccccc1; Tle = CC(C)(C)[C@H](N)C(=O)O; Boc = CC(C)(C)OC(=O)*

molecular target: HCV NS3/NS4A protease (strain 1a) (Hepatitis C virus genotype 1a, UniProt P27958); test: biochemical; details: Table 5; HCV NS3/NS4A protease, 30° C., pH 6.5; read-out: Ki* Range

| Ki [nM] | Structure (SMILES) |
| --- | --- |
| > 1000 | CCCNC(=O)CCNC(=O)C(=O)C(CCC)NC(=O)[C@@H]1C2C(CN1C(=O)C(NC(=O)OC(C)(C)C)C1CCCCC1)C2(C)C (stereo partly drawn) |

same assay, conditions: Table 5; HCV NS3/NS4A protease, spectrophotometric assay, 30° C., pH 6.5; read-out: Ki* Range

| Ki [nM] | Structure (SMILES) |
| --- | --- |
| 101 to 1000 | C=CCCC(NC(=O)[C@@H]1[C@@H]2[C@H](CN1C(=O)[C@@H](NC(=O)N(C(C)C)C(C)C)C1CCCCC1)C2(C)C)C(=O)C(=O)NCC=C (stereo partly drawn) |
| 101 to 1000 | CCCC(NC(=O)[C@@H]1[C@@H]2[C@H](CN1C(=O)[C@@H](NC(=O)OC(C)(C)C(F)(F)F)C(C)(C)C)C2(C)C)C(=O)C(N)=O (stereo partly drawn) |
| > 1000 | CC(C)CC(NC(=O)[C@@H]1CC(C)(C)CN1C(=O)[C@H](NC(=O)OC(C)(C)C)C(C)(C)C)C(=O)C(=O)NCC(=O)NCc1ccccc1 (stereo partly drawn) |
| 1 to 100 | CCCC(NC(=O)[C@@H]1CC(NS(=O)(=O)c2ccc(OC)cc2)CN1C(=O)[C@@H](NC(=O)OC(C)(C)C)C1CCCCC1)C(=O)C(=O)NCC(=O)N[C@H](C(=O)N(C)C)c1ccccc1 (stereo partly drawn) |
| > 1000 | C=CCNC(=O)C(=O)C(CCC)NC(=O)[C@@H]1[C@@H]2CCC(C)(C)OC2CN1C(=O)[C@@H](NC(=O)OC(C)(C)C)C(C)(C)C (stereo partly drawn) |
| > 1000 | C=CCNC(=O)C(=O)C(CCCC)NC(=O)[C@@H]1CC(C)(C)CN1C(=O)[C@@H](NC(=O)OC(C)(C)C)C(C)(C)C (stereo partly drawn) |

Continued, molecule first:

| Structure (SMILES) | Ki [nM] |
| --- | --- |
| CN(C)C(=O)[C@@H](NC(=O)CNC(=O)C(=O)C(CC1CC1)NC(=O)[C@@H]1[C@@H]2[C@H](CN1C(=O)OC(C)(C)C)C2(C)C)c1ccccc1 (stereo partly drawn) | > 1000 |
| CCCCC(NC(=O)[C@@H]1C2CC(C3CC32)N1C(=O)C(NC(=O)OC(C)(C)C)C1CCCCC1)C(=O)C(=O)NCC(=O)N[C@@H](C(=O)N(C)C)c1ccccc1 (stereo partly drawn) | 1 to 100 |
| CC(C)(C)OC(=O)N[C@H](C(=O)N1C[C@H]2[C@@H]([C@H]1C(=O)NC(CC(F)(F)F)C(=O)C(N)=O)C2(C)C)C1Cc2ccccc2C1 (stereo partly drawn) | 101 to 1000 |
| CC(C)COC(=O)N[C@H](C(=O)N1C[C@@H]2[C@H]([C@H]1C(=O)NC(CC1CC1)C(=O)C(N)=O)C2(C)C)C1Cc2ccccc2C1 (stereo partly drawn) | 1 to 100 |
| CCCC(NC(=O)C1C2CCC(C2)N1C(=O)[C@@H](NC(=O)OC(C)(C)C)C(C)(C)C)C(=O)C(=O)NCC(=O)O (stereo partly drawn) | > 1000 |
| CCCCCCNC(=O)N[C@H](C(=O)N1C[C@H]2[C@@H]([C@H]1C(=O)NC(CCC)C(=O)C(N)=O)C2(C)C)C(C)(C)C (stereo partly drawn) | 101 to 1000 |
| C=CCC(NC(=O)[C@@H]1[C@H]2[C@@H](CN1C(=O)[C@@H](NC(=O)OC(C)(C)C)C1CCCC1)C2(C)C)C(=O)C(=O)NCCC(=O)OC(C)(C)C (stereo partly drawn) | 101 to 1000 |
| CN(C)C(=O)[C@@H](NC(=O)CNC(=O)C(=O)C(CC1CC1)NC(=O)[C@@H]1[C@H]2CCC(C)(C)O[C@H]2CN1C(=O)[C@@H](NC(=O)OC(C)(C)C)C(C)(C)C)c1ccccc1 (stereo partly drawn) | 101 to 1000 |
| CCCC(NC(=O)[C@@H]1[C@@H]2[C@H](CN1C(=O)[C@@H](NC(=O)OC(C)(C)C)C(C)(C)C)C2(C)C)C(=O)C(=O)NCc1ccco1 (stereo partly drawn) | 101 to 1000 |
| COC(=O)C(=O)C(CCC1CC1)NC(=O)[C@@H]1[C@@H]2[C@H](CN1C(=O)[C@@H](NC(=O)OC(C)(C)C)C1CCCCC1)C2(C)C (stereo partly drawn) | > 1000 |
| CCCCC(NC(=O)[C@@H]1C2C(CN1C(=O)[C@@H](NC(=O)OC(C)(C)C)C(C)(C)C)C2(Cl)Cl)C(=O)C(=O)NCC(=O)N[C@H](C(=O)N(C)C)c1ccccc1 (stereo partly drawn) | 1 to 100 |
| C=CCC(NC(=O)[C@@H]1[C@H]2[C@H](CN1C(=O)[C@@H](NC(=O)OC(C)(C)C)C(C)(C)C)C2(C)C)C(=O)C(=O)NCC(=O)NCc1ccc(Br)cc1 (stereo partly drawn) [drawing 1784] | 101 to 1000 |

same assay, conditions: Table 6; HCV NS3/NS4A protease, 30° C., pH 6.5; read-out: Ki*

| Ki [nM] | Structure (SMILES) |
| --- | --- |
| 1 to 100 | CC(C)(C)OC(=O)N[C@H](C(=O)N1C[C@H]2[C@@H]([C@H]1C(=O)NC(CCC(F)(F)F)C(=O)C(N)=O)C2(C)C)C1Cc2ccccc2C1 (stereo partly drawn) |
| 1 to 100 | CC(C)(C)OC(=O)N[C@H](C(=O)N1C[C@H]2[C@@H]([C@H]1C(=O)N[C@@H](CC1CCC1)C(=O)C(N)=O)C2(Cl)Cl)C(C)(C)C |
| 1 to 100 | CC(C)(C)OC(=O)N[C@H](C(=O)N1C[C@H]2[C@@H]([C@H]1C(=O)NC(CC1CCC1)C(=O)C(=O)NCC(=O)OCc1ccccc1)C2(C)C)C1CCCCC1 (stereo partly drawn) |
| 1 to 100 | CCCC(NC(=O)[C@@H]1[C@@H]2[C@H](CN1C(=O)[C@@H](NC(=O)OC(C)(C)C(F)(F)F)C(C)(C)C)C2(C)C)C(=O)C(=O)NCC(=O)NCc1ccccc1 (stereo partly drawn) |

| Structure (SMILES) | Ki [nM] |
| --- | --- |
| CN(C)C(=O)[C@@H](NC(=O)CNC(=O)C(=O)C(NC(=O)[C@@H]1[C@@H]2[C@H](CN1C(=O)[C@@H](NC(=O)OC(C)(C)C)C(C)(C)C)C2(C)C)C1CCCC1)c1ccccc1 (stereo partly drawn) (Boc-[Tle][Pro(3R,4S-CMe2)][X89]G[Phg]-NMe2) | 1 to 100 |
